Results from the supplement of paper PMC4723716.
± gives the uncertainty stated by the source. Over roughly 9,900 compounds, “viability index relative to DMSO control” has its median near 1; the lowest 2% begin near 0.85. Some of the results follow.

System: Plasmodium falciparum NF54 stage V gametocytes
Assay: viability index relative to DMSO control (fraction); higher = less gametocyte killing
Conditions: 2.5 µM, library set: Broad Institute DOS, incubation time: 72 h
In short: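 P. falciparum NF54 stage V gametocytes in serum-free screening medium (0.75% gametocytemia, 1.25% hematocrit, 10 µl) were incubated with compound at 2.5 µM in 1,536-well plates for 72 hr at 37°C under low oxygen. Then 3 µl of 2.5 µM MitoTracker Red CMXRos plus 0.13% saponin was added for one to two hours. One field per well was imaged, 20–70 µm2 red particles were counted, and the viability index was the count divided by the plate mean of DMSO wells.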

| SMILES | viability index |
| --- | --- |
| CO[C@H]1CN(C)C(=O)c2ccc(NC(=O)c3ccccc3F)cc2OC[C@@H](C)N(C)C[C@@H]1C | 1.01 ± 0.063 |
| O=C(C[C@@H]1CC[C@@H](NC(=O)c2cccnc2)[C@H](CO)O1)NCc1ccc(Cl)c(Cl)c1 | 0.961 ± 0.091 |
| COc1ccc2c3c([nH]c2c1)[C@@H](CO)N(C[C@]31CN(CC2CCOCC2)C1)C(=O)Nc1c(C)noc1C | 1.02 ± 0.034 |
| CN(C)C(=O)c1ccc(-c2ccc([C@@H]3[C@H](C#N)N(C(=O)C4CC4)[C@H]3CO)cc2)cc1 | 1.11 ± 0.018 |
| COc1ccc2c3c([nH]c2c1)[C@H](CO)N(Cc1ccc2OCOc2c1)C[C@]31CCN(CC1)C(=O)Nc1c(C)noc1C | 1.09 ± 0.09 |
| CC(=O)N1[C@H](CO)[C@@H](c2ccccc2)[C@H]1CNC(=O)CN1CCOCC1 | 0.975 ± 0.047 |
| COc1ccccc1CNC(=O)C[C@@H]1CC[C@H]2[C@@H](COC[C@H](O)CN2Cc2ccc3c(c2)OCO3)O1 | 1.06 ± 0.092 |
| CC(C)(O)C#Cc1ccc([C@H]2[C@H](CO)N3CCCCN(S(C)(=O)=O)C[C@@H]23)cc1 | 1.01 ± 0.016 |
| COc1cccc(-c2ccc([C@H]3[C@H]4CN(C(=O)c5cccnc5)CC(=O)N4[C@H]3CO)cc2)c1 | 1.04 ± 0.02 |
| CN(C)C(=O)c1cccc(-c2ccc([C@H]3[C@H]4CN(CC5CCOCC5)CCCCN4[C@H]3CO)cc2)c1 | 1.02 ± 0.047 |
| N#C[C@@H]1[C@@H](c2ccc(/C=C/c3ccccc3)cc2)[C@@H](CO)N1C(=O)C1CCCC1 | 1.025 ± 0.0016 |
| O=C(C[C@H]1C=C[C@H](NC(=O)Nc2cccc(F)c2)[C@H](CO)O1)NCC1CCCCC1 | 0.95 ± 0.062 |
| COc1ccc2c3c([nH]c2c1)[C@@H](CO)N(C[C@]31CCN(CC1)C(=O)Nc1ccc(F)cc1F)C(C)=O | 1.07 ± 0.056 |
| COc1cccc(C#Cc2ccc3c(c2)O[C@@H](CN(C)C(=O)CN2CCOCC2)[C@@H](C)CN([C@H](C)CO)S3(=O)=O)c1 | 0.966 ± 0.13 |
| COc1ccc2c3c([C@H](CO)N(C[C@]33CCN(Cc4cccnc4)CC3)S(=O)(=O)c3ccc(C)cc3)n(C)c2c1 | 1.054 ± 0.0079 |
| NCC[C@H]1CC[C@@H](NC(=O)NC2CCCCC2)[C@@H](CO)O1 | 0.988 ± 0.15 |
| CO[C@@H](CN(C)S(=O)(=O)c1cccc(Cl)c1)[C@@H](C)CN(C(=O)Nc1ccccc1F)[C@@H](C)CO | 0.987 ± 0.046 |
| CN1C[C@H](O)COC[C@H]2O[C@@H](CC(=O)NC3CCCC3)CC[C@@H]21 | 1.12 ± 0.06 |
| O=C(Nc1cc(F)ccc1F)N[C@@H]1CC[C@H](CCn2cc(C3CCCCC3)nn2)O[C@@H]1CO | 0.914 ± 0.036 |
| C[C@H]1C/C=C/C[C@H](c2cccc(Cl)c2)NC(=O)[C@@H](Cc2ccccc2)N(C)C(=O)c2ccccc2O1.C[C@H]1C/C=C\C[C@H](c2cccc(Cl)c2)NC(=O)[C@@H](Cc2ccccc2)N(C)C(=O)c2ccccc2O1 | 1.02 ± 0.066 |
| COc1ccc2c3c([nH]c2c1)[C@@H](CO)NC[C@]31CN(Cc2cc(F)ccc2F)C1 | 1.03 ± 0.11 |
| CCN1[C@H](C(=O)NC2Cc3ccccc3C2)[C@@H](CO)[C@@H]2Cn3c(ccc(C4=CCCC4)c3=O)[C@@H]21 | 0.993 ± 0.073 |

| SMILES | viability index |
| --- | --- |
| C[C@H]1CN([C@@H](C)CO)C(=O)Cc2cc(NC(=O)CCCCCC(=O)Nc3ccccc3N)ccc2O[C@@H]1CN(C)S(=O)(=O)c1cccs1 | 0.88 ± 0.16 |
| Cc1noc(C)c1NC(=O)Nc1ccc2c(c1)C(=O)N(C)[C@H]1CC[C@H](CC(=O)N[C@H]3CCN(Cc4ccccc4)C3)O[C@@H]1CO2 | 1.07 ± 0.025 |
| C[C@H]1CN([C@@H](C)CO)C(=O)c2c(c3ccccc3n2C)-c2ccccc2CO[C@H]1CN(C)S(=O)(=O)c1ccccc1C#N | 1.04 ± 0.1 |
| COc1ccc2c3c([nH]c2c1)[C@H](CO)N(C[C@]31CCN(Cc2nccs2)CC1)S(=O)(=O)c1ccc(C)cc1 | 1.03 ± 0.1 |
| COc1ccccc1CNC(=O)C[C@H]1CC[C@@H]2[C@@H](COc3ccc(NC(C)=O)cc3C(=O)N2C)O1 | 0.957 ± 0.015 |
| COc1ccccc1CN1[C@@H]2CNC[C@H]1[C@H]2c1ccc(/C=C/c2ccccc2)cc1 | 1.02 ± 0.016 |
| CC(C)(C)[S@@](=O)N1Cc2cc(C(=O)NCC(F)(F)F)nc(-c3cccc(-c4cccc(F)c4)c3)c2[C@H]1CCO | 1.01 ± 0.032 |
| CO[C@H](CN(C)C(=O)c1ccccc1F)[C@@H](C)CN([C@@H](C)CO)S(=O)(=O)c1ccc(F)cc1 | 0.952 ± 0.063 |
| COc1ccc2c3c([nH]c2c1)[C@H](CO)N(C)C[C@]31CN(C1)C(=O)C1CC1 | 0.863 ± 0.01 |
| O=C(N[C@H]1C=C[C@H](CC(=O)N2CCC(Cc3ccccc3)CC2)O[C@@H]1CO)c1cnccn1 | 1.09 ± 0.11 |
| C/C=C/c1ccc2n(c1=O)C[C@@H]1[C@@H](CO)[C@H](C(=O)Nc3ccc(-c4ccccc4)cc3)[C@H]2N1C(=O)CC.C/C=C\c1ccc2n(c1=O)C[C@@H]1[C@@H](CO)[C@H](C(=O)Nc3ccc(-c4ccccc4)cc3)[C@H]2N1C(=O)CC | 1.12 ± 0.12 |
| COc1ccc2c3c([C@@H](CO)N(C[C@]33CCN(C)CC3)S(=O)(=O)c3ccc(C)cc3)n(C)c2c1 | 1.01 ± 0.031 |
| COCC(=O)N1[C@@H](C#N)[C@@H](c2ccccc2-c2cccc(C)c2)[C@@H]1CO | 1.07 ± 0.14 |
| CC(C)NC(=O)N[C@@H]1CC[C@@H](CC(=O)NCCCN(C)C)O[C@@H]1CO | 0.941 ± 0.056 |
| CCCNC(=O)N1CC(=O)N2[C@H](CO)[C@H](c3ccc(C#Cc4cccc(OC)c4)cc3)[C@@H]2C1 | 1.02 ± 0.062 |
| O=C(C1CCOCC1)N1CC2(C1)[C@H](c1ccccc1)[C@H](CO)N2Cc1ccccc1F | 1.06 ± 0.063 |
| C[C@@H]1CN([C@@H](C)CO)C(=O)c2cccc(NC(=O)c3nc4ccccc4s3)c2O[C@H]1CN(C)C(=O)Nc1ccc2c(c1)OCO2 | 0.878 ± 0.11 |
| CN1C(=O)c2cc(NC(=O)c3ccc(F)c(F)c3)ccc2OC[C@H]2O[C@@H](CC(=O)N3CCCCC3)CC[C@H]21 | 1.1 ± 0.0047 |
| COc1cccc(-c2ccc3c(c2)[C@H]2[C@H](CCN2S(=O)(=O)C2=NC(C)C=N2)[C@H](CO)N3C)c1 (stereo partly drawn) | 0.9928 ± 0.0067 |
| O=C(C[C@H]1CC[C@H]2[C@@H](COC[C@@H](O)CN2Cc2cccc(Cl)c2)O1)NCc1cccc(F)c1 | 1.12 ± 0.059 |
| O=C(CN1CCOCC1)N(CC1CCC1)C[C@H]1N[C@H](CO)[C@@H]1c1ccccc1 | 0.981 ± 0.064 |
